# Source: PubChem BioAssay AID686979 (National Center for Advancing Translational Sciences (NCATS), 2013)
# Values joined by “and” are separate entries in the source; they are usually repeats but may differ in a detail not shown here. Equal entries are not always repeated. The whole screen tested about 420,000 compounds, of which about 50,000 (12%) were called active. Inconclusive means that the source gave no clear call. Such entries were picked first, then a sample of the others. Calls come from the whole dose curve; as a rule, active = well fitted inhibition curve with a large enough effect; inconclusive = small, poorly fitted or top-dose-only effect; inactive = flat fitted curve, though single readings scatter. A potency beside an inconclusive call is a rough fit, not a confirmed value.
# Experiment: qHTS for Inhibitors of human tyrosyl-DNA phosphodiesterase 1 (TDP1): qHTS in cells in presence of CPT; note: nearly all actives have a fitted effect of over 55% in size
# Details: chicken DT40 Tdp1-/-;hTDP1 cells + 20 nM CPT, ATP luminescence, 48 h; activity change, negative = growth inhibition: at 46.2 µM (top of the series)
# How it was run: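 Chicken DT40 Tdp1-/- cells stably complemented with human TDP1 were seeded at 400 cells/well in medium containing 20 nM camptothecin, exposed to pin-transferred compounds, and grown at 37 °C for at least 48 hr. Viability was read as ATP luminescence.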
# % is set by controls: 0 for no effect and ±100 for the full control effect; potency is the fitted concentration of half-maximal effect; tags give direction and shape of the fitted curve.
Compound,Potency,"activity change, negative = growth inhibition"
COc1ccccc1C(=O)NC(=O)COC(=O)C1CC2CCCC(C1)C2=O (configuration not stated),inactive,–
C=CCOc1ccccc1CNc1cccc(F)c1,"inconclusive: 11.6 µM [inhibitor, partial curve, poor fit]",–
CC1=C(C)CS(=O)N(S(=O)(=O)c2ccc(Cl)cc2)C1 (configuration not stated),active: 3.66 µM,–
COc1ccc(NC(=O)CSc2n[nH]c(-c3ccccn3)n2)cc1,active: 16.4 µM,–
O=C(NCc1ccco1)/C(=C/c1ccc(C(F)(F)F)cc1)c1nc2ccccc2[nH]1,"inconclusive: 20.6 µM [inhibitor, single point]",–
Cc1cc(Cl)ccc1OCCCC(=O)N1CCN(S(=O)(=O)c2ccccc2)CC1,"inconclusive: 25.9 µM [inhibitor, single point]",–
CCc1ccccc1NC1=NCC(=O)N1Cc1ccc(OC)cc1,"inconclusive: 16.4 µM [inhibitor, single point]",–
CCc1ccc(CN2CCC(Oc3ccc(C(=O)NCc4ccccn4)cc3)CC2)o1,"inconclusive: 29.1 µM [inhibitor, single point]",–
O=C(CCNC(=O)c1ccc(Br)cc1)NCc1ccccn1,inactive,–
CCC(=O)N1CCc2cc(Br)cc(S(=O)(=O)CCC(=O)N(CC)Cc3ccccc3)c21,"inconclusive: 23.1 µM [inhibitor, single point]",–
CCN(CC)CCC(c1cc(OC)c(OC)c(OC)c1)c1c(OC)cc(OC)c2ccc(=O)oc12 (configuration not stated),"inconclusive: 3.26 µM [inhibitor, full curve]",–
CCC(C)(C)C1CCc2[nH]nc(C(=O)N/N=C(\C)c3ccco3)c2C1 (configuration not stated),"inconclusive: 29.1 µM [inhibitor, single point]",–
CCOCCCNC(=O)C(c1ccc(Cl)cc1)N(Cc1cccs1)C(=O)c1ccc(NC(C)=O)cc1 (configuration not stated),active: 14.6 µM,–
Cc1cc(C)n(-c2nc(NCCN(C)C)c3c4c(sc3n2)COC(C)(C)C4)n1,"inconclusive: 25.9 µM [inhibitor, single point]",–
O=C(Nc1ccccc1[N+](=O)[O-])c1cncc(Br)c1,"inconclusive: 29.1 µM [inhibitor, single point]",–
Cc1ccc(NC(=O)CN2C(=O)C3(SCC(=O)N3c3ccc(F)c(F)c3)c3ccccc32)c(C)c1 (configuration not stated),"inconclusive: 29.1 µM [inhibitor, single point]",–
CC(=O)c1cc(NC(=O)c2ccc([N+](=O)[O-])cc2)c(=O)oc1C,"inconclusive: 23.1 µM [inhibitor, single point]",–
CC1=N/C(=C\c2ccc(OC(C)C)cc2)C(=O)N1c1ccc(C(=O)O)cc1,"inconclusive: 11.6 µM [inhibitor, partial curve]",–
O=C(Nc1cccnc1)C1(c2ccc(Cl)cc2)CCCC1,"inconclusive: 9.2 µM [inhibitor, partial curve, poor fit]",–
CCc1nc(N)nc2c1C(=O)CC(C)(C)C2,"inconclusive: 2.06 µM [inhibitor, single point]",–
O=C(Nc1ncc(S(=O)(=O)c2ccc([N+](=O)[O-])cc2)s1)c1ccccc1F,"inconclusive: 16.4 µM [inhibitor, partial curve]",–
CCOc1ccc(-n2cc(C(=O)NCc3ccco3)c3cc(OC)c(OC)cc3c2=O)cc1,"inconclusive: 25.9 µM [inhibitor, single point]",–
Cc1ccc(Cl)cc1-c1cc(C(=O)NCc2ccc(C(F)(F)F)cc2)[nH]n1,active: 20.6 µM,–

Compound,Potency,"activity change, negative = growth inhibition"
CC(C)(Oc1ccc(Cl)cc1)C(=O)Nc1nc2ccc(S(C)(=O)=O)cc2s1,"inconclusive: 20.6 µM [inhibitor, single point]",–
NC(=O)C1CCCN(Cc2ccc3c(c2)CN(Cc2cn[nH]c2-c2ccc(F)cc2)CCO3)C1 (configuration not stated),–,inactive: 14.8% [at 9.04 µM]
CSc1cc(-c2ccccc2)n(C)c(=O)c1C#N,inactive,–
CCc1ccc(CNC(=O)C2Cc3cc(S(=O)(=O)N4CCCC4)ccc3N2C(C)=O)cc1 (configuration not stated),"inconclusive: 29.1 µM [inhibitor, single point]",–
Cc1ccc(-n2c(SCC(=O)NCc3ccco3)nnc2-c2cccnc2)c(C)c1,"inconclusive: 5.17 µM [inhibitor, full curve]",–
CN1/C(=N\O)c2cccc3cccc1c23,"inconclusive: 18.4 µM [inhibitor, partial curve]",–
O=C(NCc1ccc2c(c1)OCO2)c1cc2n(n1)C(C(F)(F)F)CC(c1ccc3c(c1)OCO3)N2 (configuration not stated),"inconclusive: 23.1 µM [inhibitor, single point]",–
CC(=O)N1CCc2cc(CNS(=O)(=O)c3ccc(Cl)s3)ccc21,"inconclusive: 20.6 µM [inhibitor, single point]",–
Cc1cc(C)cc(SCc2noc(C(=O)NCc3ccccc3)c2C(=O)NCc2ccccc2)c1,"inconclusive: 25.9 µM [inhibitor, single point]",–
CCCN(CCC)C(=O)c1ccc2nc(-c3ccc(OC)c(OC)c3)c(-c3ccc(OC)c(OC)c3)nc2c1,"inconclusive: 18.4 µM [inhibitor, single point]",–
COc1ccc(Cl)cc1NC(=O)NCC1CCN(Cc2ccccc2F)CC1,"inactive and inconclusive: 18.4 µM [inhibitor, single point]",–
Nc1nc2ncccc2cc1C(=O)NCCc1cccs1,active: 23.1 µM,–
NC(=N\N=Cc1ccco1)/C(N)=N/N=Cc1ccco1,inactive,–
COc1ccccc1N1CCN(CC(=O)NC(=O)NCc2ccccc2)CC1,"inconclusive: 29.1 µM [inhibitor, single point]",–
CCOc1ccc(-c2n[nH]c(=S)n2Cc2ccccc2)cc1,"inconclusive: 29.1 µM [inhibitor, single point]",–
CCCCCCNC(=O)O[C@H]1Cn2c(=O)n(CCCCCC)c(=O)n2[C@@H]2CN(S(=O)(=O)c3ccc(C)cc3)C[C@]12O,"inconclusive: 29.1 µM [inhibitor, single point]",–
COc1cccc(-c2c(-c3cc(OC)cc(OC)c3)n(C)c3ccc(-c4ccc5[nH]ccc5c4)cc23)c1,"inconclusive: 29.1 µM [inhibitor, single point]",–
COC(=O)[C@@]12C[C@@H](CC(=O)N3CCN(C(=O)C4CC4)CC3)C(=O)N(Cc3ccco3)C1=CCC(C)(C)C2,"inconclusive: 25.9 µM [inhibitor, single point]",–
Cc1ccc(-c2ccc(CN3C(C(C)C)C(=O)N(Cc4cn(CC5CCCCC5)nn4)CCS3(=O)=O)cc2)cc1 (configuration not stated),active: 11.6 µM,–
COc1ccc(CN2C(=O)C(Cc3ccccc3)Nc3ncnc(N4CCN(c5ccccc5)CC4)c32)cc1 (configuration not stated),"inconclusive: 23.1 µM [inhibitor, single point]",–
CCOc1ccc(OCC)c(NS(=O)(=O)c2cc(-c3onc(C)c3C)ccc2OC)c1,inactive,–
O=C(NNC(=O)c1ccc2ccccc2n1)c1ccc(O)cc1,"inconclusive: 29.1 µM [inhibitor, single point]",–
CCCCOc1ccc(C(=O)NN2CCN(C)CC2)cc1,inactive,–

Compound,Potency,"activity change, negative = growth inhibition"
NC1=CC(=O)C(=O)c2ccccc21,active: 23.1 µM,–
CSc1nc(=NC(C)=O)ss1,"inconclusive: 14.1 µM [inhibitor, single point]",–
CSc1ccc(CN2CCC2(C)C(=O)Nc2cccc(Oc3ccccc3)c2)cc1 (configuration not stated),active: 18.4 µM,–
C=C1CCN([C@@H](C)C(=O)NCc2cc(OC)c(OC)c(OC)c2)S(=O)(=O)c2ccccc21,"inconclusive: 16.4 µM [inhibitor, partial curve]",–
Cc1cc2ccccc2c[n+]1CC(=O)c1ccc(F)cc1,"inconclusive: 22.4 µM [inhibitor, single point]",–
Cc1nn(-c2ccccc2)c(Cl)c1C(=O)NCC(C)c1ccccc1 (configuration not stated),"inconclusive: 16.4 µM [inhibitor, partial curve]",–
CSCCC(=O)N(C)CC1CCN(CCc2cccc(C(F)(F)F)c2)CC1,inactive,–
COc1ccc(-c2csc3ncnc(N4CCN(S(=O)(=O)c5ccc(C)c(C)c5)CC4)c23)cc1,"inconclusive: 18.4 µM [inhibitor, single point]",–
O=C(C1CCN(S(=O)(=O)c2cccc3cccnc23)CC1)N1CCN(c2ccc(Cl)cc2)CC1,"inconclusive: 23.1 µM [inhibitor, single point]",–
CCCC/C(O)=C1\C(=O)CC(C)(C)CC1=Nc1ccccc1OC,"inconclusive: 10.3 µM [inhibitor, partial curve]",–
COc1ccc(NC(=O)C(CC(C)C)NC(=O)C2CCC(C)CC2)c(OC)c1 (configuration not stated),active: 14.6 µM,–
O=C(c1ccccc1)N1CCN(C(=O)c2ccccc2)C1c1ccccc1,inactive,–
COc1ccc(N2CCN(C(=O)c3cc(S(=O)(=O)N4CCC(C)CC4)cn3C)CC2)cc1,active: 23.1 µM,–
OCCC1CN(Cc2cccn2-c2ccccn2)CCN1C1CCCC1 (configuration not stated),inactive,–
COc1cccc(/C=N/n2nnnc2N)c1OCC#N,inactive,–
O=C(O)CN1C(=O)c2ccc(C(=O)c3ccccc3)cc2C1=O,inactive,–
COc1cccc(CNC(=O)Cn2cccc2C(=O)c2ccccc2C)c1,inactive,–
CC1(C(=O)Nc2ccc3ccccc3c2)CCC(=O)N1C1CCN(Cc2ccccc2)CC1 (configuration not stated),"inconclusive: 29.1 µM [inhibitor, single point]",–
CCN(C(=O)C1CCN(c2ncnc3c2nc2n3CCCCC2)CC1)c1cccc(Cl)c1,"inconclusive: 18.4 µM [inhibitor, single point]",–
COc1ccc(/C=N/NC(=O)c2nc(Cl)c(Cl)c(N)c2Cl)cc1COc1ccccc1F,active: 23.1 µM,–
O=C(NCc1cccs1)c1ccc([N+](=O)[O-])cc1,–,inconclusive: -30.9% [inhibitor]
